The values that follow come from the supplement of paper PMC4466236.

In all, about 33,000 sequences were measured (“E-score (dimensionless, -0.5 to 0.5)”: median about -0.058, highest 2% from about 0.35 on). Some of the results follow.

The subject of the test is MvaT. In words: PBM 8-mer E-score (mean of HK and ME arrays) (E-score (dimensionless, -0.5 to 0.5)); higher = stronger relative binding preference; most listed sequences are background and not binding sites. As for the experimental part: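 Protein binding microarray: GST-tagged full-length MvaT (P. aeruginosa PAO1) bound to two universal double-stranded 60-mer arrays (ME and HK), each with a constant 25-mer primer and a variable 35-mer region covering all 8-mers. The 8-mer E-score (rank-based, range -0.5 to 0.5, >0.45 = specific binding) is the mean of the two arrays.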
As for ATGCAAAG, the “PBM 8-mer E-score” value came out at 0.085.
As for GCGTTAGA, the “PBM 8-mer E-score” value was -0.0834.
Next, AATTAACG: 0.28; ATTACCTC: 0.00993.
Take AACGCGAC: the “PBM 8-mer E-score” value is -0.0208.
The result for ATACGGTG reads -0.181; that for AACTACCT, 0.144; that for GCGCAACA, 0.064.
Next, CCGGTAAC: -0.0396; ACGACGTA: -0.0929; CTAAAGCC: -0.122.
With ATAAGTTG, the “PBM 8-mer E-score” value is 0.342.
The result for ACGATGCC reads -0.0988.
The result for ATCAACAA reads 0.217; that for GTACGTGA, 0.0149.
Next, AGGAAGTG: -0.0167; CCGACACC: -0.265.
With ATGAAATG, the “PBM 8-mer E-score” value amounted to 0.155.
The result for GGCTGAAC reads -0.0977; that for GCGTCTTA, 0.0293; that for AGGACGAG, -0.247.
The result for ACTCATAT reads 0.261; that for AAAGTGGA, -0.185; that for CGCGCTTA, 0.0087.
As to CATTTACA, the “PBM 8-mer E-score” value amounted to 0.339.
Take CTAGTTTA: the “PBM 8-mer E-score” value was 0.306.
In the case of GAGAGGCC, the “PBM 8-mer E-score” value is -0.32.
Next, AATTGTGT: 0.251; GGTTGATA: 0.124; ACCCTCTG: -0.224.
CTTTGCGA: the “PBM 8-mer E-score” value was -0.129.
Next, AAGGCCTA: -0.149; ACTTGACG: -0.027.
GCATGTTA: the “PBM 8-mer E-score” value stood at 0.182.
Next, GAAAGGTC: -0.213; CGTGTTAG: -0.118.
For AACTGGCA, the “PBM 8-mer E-score” value worked out at 0.0733.
For the sequence CCGCATGC, the “PBM 8-mer E-score” value was -0.119.
For the sequence CCCAGCAG, the “PBM 8-mer E-score” value is -0.187.
Next, CGGTACCC: -0.26.
The result for AACAATGG reads 0.132.
The result for GCGAATAC reads 0.0443; that for AACTCAAT, 0.216.
CCAGGCCA: the “PBM 8-mer E-score” value was -0.316.
Next, AATGTTCG: 0.0127.
The result for TAGACAAA reads 0.115.
Next, CTGCATAC: 0.0252.
ATACTTTA: the “PBM 8-mer E-score” value came out at 0.343.
The result for ATCTCTAG reads -0.00763; that for CCGTCCCC, -0.319.
The result for AAACGACT reads 0.132; that for CTATCATA, 0.226; that for CTGTTCAA, -0.0354.
Next, CACGCTTC: -0.248.
For the sequence CCCATTTC, the “PBM 8-mer E-score” value was -0.0307.
The result for GTGCGCTA reads -0.186.
The result for AAATAGCT reads 0.11.
Next, CAAAGGCA: -0.255.
In the case of TCGTCCAA, the “PBM 8-mer E-score” value is -0.12.
Next, ATGGGAAT: 0.16; GCATGCCA: -0.156.
Next, CAGCATCA: -0.0605; GCCATTTA: 0.134; TATTTTGA: 0.259.
For ACTATACT, the “PBM 8-mer E-score” value amounted to 0.228.
The result for TTCCCCAA reads -0.0342.
Next, CAAGTTAA: 0.332; AATCGCAG: -0.122; AATATCGG: 0.237.
Next, GTTGCCAA: 0.0204.
On to CGGTCTGA, for which the “PBM 8-mer E-score” value is -0.16.
Next, AAGCAGCA: -0.0495; ATTAGTCA: 0.226; ATTCTGGA: 0.0264.
With CGAGGAAC, the “PBM 8-mer E-score” value is -0.169.
The result for AGAAATGC reads 0.0601; that for ACTATTAA, 0.411.
Next, CAGTTGGC: -0.199; ACGCGATA: 0.139.
The result for GGCCATTA reads 0.0399; that for CGTGTACC, -0.149.
As to CACATACG, the “PBM 8-mer E-score” value is -0.0645.
The result for AATGGAGT reads -0.091; that for ACCTAGCT, -0.0871; that for ATGTCCTG, -0.157.
With AAAATCAT, the “PBM 8-mer E-score” value came to 0.0877.
Next, GACCACCA: -0.109; ATTGGATG: 0.131; AGGTCTTC: -0.204.
Next, GATCTTTA: 0.13; AAACCCGG: -0.224.
Next, GTGCCCCA: -0.101; AATTTCTA: 0.175.
As for CAGATAAA, the “PBM 8-mer E-score” value stood at 0.112.
The result for GGGCGATA reads -0.146; that for TCAGACAA, -0.126.
The result for AAGGGCTA reads -0.144; that for CGAGGATC, -0.201; that for GGGTGACC, -0.231.
Next, CCTGGGAG: -0.293; GCGATGCA: -0.183; GAAGATCA: 0.0645.
AACGTTAC: the “PBM 8-mer E-score” value amounted to 0.101.
Next, AACTATAC: 0.227; TATCCGAA: 0.115.
For the sequence GAGAGCCA, the “PBM 8-mer E-score” value was -0.262.
The result for CCGGGTTC reads -0.185; that for GCCAGGTA, -0.151.
The result for CCAGGCTC reads -0.25; that for AAGATCAC, -0.153.
